We go through four molecules from US12678512B2, “Anti-EGFR antibody-drug conjugate with a cyclic dinucleotide derivative” (DAIICHI SANKYO COMPANY, LIMITED, priority 2020, dated 2026).

Experiment [1] concerns HCC1954-IFIT1 reporter cells. Put plainly: HCC cell assay, IFIT1 promoter reporter in TROP2-expressing cells. Type of experiment: cell-based, human. To be noted: 24 h stimulation, FIG. 11. The text has this: By using the human breast cancer cell line HCC1954 (CRL-2338) cells purchased from the American Type Culture Collection as a strain stably expressing high levels of TROP2 and STING, HCC1954-IFIT1 reporter cells were generated by stably expressing the IFIT1 promoter reporter gene. Specifically, the purchased human IFIT1 (ISG-56) promoter reporter plasmid (GeneCopoeia, HPRM40290-PG04) was transfected into HCC1954 cells using FuGene HD (Promega). The cells were subcultured in medium containing 1.0 g/mL puromycin (Life Technologies) to generate stable expression lines, followed by cloning to obtain a cell line for evaluation. Then, HCC1954-IFIT1 reporter cells suspended in assay buffer (RPMI 1640 medium containing 10% bovine serum albumin) were dispensed at 90 μL/well (2.5×10^4 cells/well) of a 384-well plate. The next day, each test compound was diluted in PBS and 10 μL was added to start stimulation. The cells were cultured for 24 h under conditions at 37° C. and 5% CO2, and then centrifuged to collect the supernatant. Next, 6 μL of the collected supernatant was added to a white 384-well plate, and 15 μL of QUANTI-Luc (InvivoGen) solution was added thereto. After well mixing, the luminescence was measured using a plate reader (PerkinElmer, MA, US).

Experiment [2] concerns CT26.WT-hTROP2 cells subcutaneously transplanted in BALB/c mouse. Put plainly: Anti-tumor test (1). The class given is in vivo. The protocol:
CT26.WT (CRL2638), a mouse colon cancer cell line purchased from American Type Culture Collection, was transduced with the human TROP2 gene (NP_002344.2) to establish CT26.WT-hTROP2 cells. In detail, a pQCIXN vector (Takara Bio) was digested with BamHI and Eco RI and then treated with T4 DNA polymerase, so that the resulting cleaved ends were blunted. Next, a pQCIXN-DEN vector was prepared by ligation with Gateway reading frame cassette A. The human TROP2 was inserted into the vector using the Gateway system (Thermo Fisher Scientific). […] Then, the supernatant was collected, and the CT26.WT was infected therewith. The cells were maintained in medium supplemented with 250 μg/mL geneticin (Thermo Fisher Scientific).
(§1) Each antibody or antibody-CDN conjugate was diluted in acetate buffer (10 mM acetate buffer, 5% sorbitol, pH 5.5) (NACALAI TESQUE, INC.).
CT26.WT-hTROP2 cells were suspended in saline. Next, 2.0×10^6 cells were transplanted subcutaneously into the right axillary region of each BALB/c mouse (Day 0), and random grouping was conducted after 7 days. […] In addition, the vehicle group was provided in which acetate buffer was administered. The number of mice in each group was 8.

The subject of experiment [3] is mouse bone marrow-derived dendritic cells. Briefly: Co-culture assay with CT26.WT or CT26.WT-hCD70 cell line and mouse bone marrow-derived dendritic cells. Type of experiment: cell-based. To be noted: conditions DC, 20 h incubation, FIG. 12. An excerpt:
CT26.WT (CRL2638), a mouse colon cancer cell line purchased from American Type Culture Collection, was transduced with human CD70 gene (NP_001243) to establish CT26.WT-hCD70 cells. Specifically, a pLVSIN lentiviral vector (Takara Bio), in which the human CD70 gene was inserted, was constructed. Next, Lenti-X293T cell line (Takara Bio) was transfected with the vector using a Lentiviral High Titer Packaging Mix (Takara Bio). Then, the supernatant was collected, and the CT26.WT was infected therewith. The cells were maintained in medium supplemented with 10 μg/mL puromycin (Thermo Fisher Scientific).
Mouse bone marrow cells were collected from the femur of 5-week-old female BALB/c mice (BALB/cAnNCrlCrlj) (Charles River, Japan). The mouse bone marrow cells were cultured in the presence of […] murine GM-CSF (PEPROTECH) for 7 days to obtain mouse bone marrow-derived dendritic cells. 1.5×10^5 CT26.WT or CT26.WT-hCD70 cell line cells and 1×10^5 mouse bone marrow-derived dendritic cells were seeded per well of a 96-well plate. Each test compound was diluted in RPMI medium (Invitrogen), and 200 μL was added. […] The cells were washed with FCM buffer again and analyzed using a Fortessa (BD Biosciences). MFI of CD86 in CD45^+, CD11c^+, and I-A/I-E^+ fraction was calculated. Then, the ratio with respect to the test compound-free group was calculated. […]

The subject of experiment [4] is Caki-1 (HTB-46) cells subcutaneously transplanted in BALB/c-nu mouse. Briefly: Anti-tumor test (3). Type of experiment: in vivo, human. To be noted: 1.5 mg/kg into the tail vein once on Day 13, FIG. 22. As to the method:
as §1
Caki-1 (HTB-46) cells, a human renal cancer cell line purchased from American Type Culture Collection, were suspended in Matrigel (CORNING) diluted 50% in saline. Next, 2.5×10^6 cells were transplanted subcutaneously into the right axillary region of each BALB/c-nu mouse (Day 0), and random grouping was conducted after 13 days. The anti-CD70 antibody 1, the anti-CD70 antibody 1-CDN conjugate (1), the anti-CD70 antibody 2, or the anti-CD70 antibody 2-CDN conjugate (1) was administered at a dose of 1.5 mg/kg into the tail vein once on Day 13. In addition, the vehicle group was provided in which acetate buffer was administered. The number of mice in each group was 8.

B1: anti-TROP2 antibody 2: created by introducing LALA mutation into the anti-TROP2 antibody 1; light chain SEQ ID NO: 7, heavy chain SEQ ID NO: 8 (antibody, listed as Homo sapiens)
heavy: QVQLVQSGAEVKKPGASVKVSCKASGYTFTTAGMQWVRQAPGQGLEWMGWINTHSGVPKYAEDFKGRVTISADTSTSTAYLQLSSLKSEDTAVYYCARSGFGSSYWYFDVWGQGTLVTVSSASTKGPSVFPLAPSSKSTSGGTAALGCLVKDYFPEPVTVSWNSGALTSGVHTFPAVLQSSGLYSLSSVVTVPSSSLGTQTYICNVNHKPSNTKVDKRV[omitted - human IgG1 Fc with changes]
light: DIQMTQSPSSLSASVGDRVTITCKASQDVSTAVAWYQQKPGKAPKLLIYSASYRYTGVPSRFSGSGSGTDFTLTISSLQPEDFAVYYCQQHYITPLTFGQGTKLEIKRTVAAPSVFIFPPSDEQLKSGTASVVCLLNNFYPREAKVQWKVDNALQSGNSQESVTEQDSKDSTYSLSSTLTLSKADYEKHKVYACEVTHQGLSSPVTKSFNRGEC
On to B1, for which the “luminescence count (IFIT1 promoter reporter)” value in experiment [1] is reported as “did not cause an increase in the luminescence count”. Also, the “tumor growth (tumor volume)” value in experiment [2] (3.0 mg/kg into the tail vein once on Day 7, FIG. 14) was “tumor growth progressed”.

B2: anti-TROP2 antibody 1: IgG1 isotype, produced with reference to WO2015/098099; light chain SEQ ID NO: 5, heavy chain SEQ ID NO: 6 (antibody, listed as Homo sapiens)
heavy: QVQLVQSGAEVKKPGASVKVSCKASGYTFTTAGMQWVRQAPGQGLEWMGWINTHSGVPKYAEDFKGRVTISADTSTSTAYLQLSSLKSEDTAVYYCARSGFGSSYWYFDVWGQGTLVTVSSASTKGPSVFPLAPSSKSTSGGTAALGCLVKDYFPEPVTVSWNSGALTSGVHTFPAVLQSSGLYSLSSVVTVPSSSLGTQTYICNVNHKPSNTKVDKRV[omitted - human IgG1 Fc]
light: DIQMTQSPSSLSASVGDRVTITCKASQDVSTAVAWYQQKPGKAPKLLIYSASYRYTGVPSRFSGSGSGTDFTLTISSLQPEDFAVYYCQQHYITPLTFGQGTKLEIKRTVAAPSVFIFPPSDEQLKSGTASVVCLLNNFYPREAKVQWKVDNALQSGNSQESVTEQDSKDSTYSLSSTLTLSKADYEKHKVYACEVTHQGLSSPVTKSFNRGEC
For the molecule B2, in experiment [2] (30 g/animal (equivalent to 1.5 mg/kg) into the tail vein once on Day 7, FIG. 13), the “tumor growth (tumor volume)” value is “Tumor growth progressed”.

B3: anti-CD70 antibody 1: IgG1 isotype with LALA mutation, produced with reference to WO2004/073656; light chain SEQ ID NO: 1, heavy chain SEQ ID NO: 2 (antibody, listed as Homo sapiens)
heavy: QVQLVQSGAEVKKPGASVKVSCKASGYTFTNYGMNWVRQAPGQGLKWMGWINTYTGEPTYADAFKGRVTMTRDTSISTAYMELSRLRSDDTAVYYCARDYGDYGMDYWGQGTTVTVSSASTKGPSVFPLAPSSKSTSGGTAALGCLVKDYFPEPVTVSWNSGALTSGVHTFPAVLQSSGLYSLSSVVTVPSSSLGTQTYICNVNHKPSNTKVDKRV[omitted - human IgG1 Fc with changes]
light: DIVMTQSPDSLAVSLGERATINCRASKSVSTSGYSFMHWYQQKPGQPPKLLIYLASNLESGVPDRFSGSGSGTDFTLTISSLQAEDVAVYYCQHSREVPWTFGQGTKVEIKRTVAAPSVFIFPPSDEQLKSGTASVVCLLNNFYPREAKVQWKVDNALQSGNSQESVTEQDSKDSTYSLSSTLTLSKADYEKHKVYACEVTHQGLSSPVTKSFNRGEC
In the case of B3, the “CD86 expression on mouse dendritic cells (ratio of MFI with respect to the compound-free group)” value in experiment [3] is listed as “Neither the anti-CD70 antibody 1 nor the anti-CD70 antibody 2 upregulated CD86 expression in any condition”. The “tumor growth (tumor volume)” value in experiment [4] is given as “Tumor growth progressed”.

B4: anti-CD70 antibody 1-CDN conjugate (1) (conjugate)
heavy: QVQLVQSGAEVKKPGASVKVSCKASGYTFTNYGMNWVRQAPGQGLKWMGWINTYTGEPTYADAFKGRVTMTRDTSISTAYMELSRLRSDDTAVYYCARDYGDYGMDYWGQGTTVTVSSASTKGPSVFPLAPSSKSTSGGTAALGCLVKDYFPEPVTVSWNSGALTSGVHTFPAVLQSSGLYSLSSVVTVPSSSLGTQTYICNVNHKPSNTKVDKRV[omitted - human IgG1 Fc with changes]
light: DIVMTQSPDSLAVSLGERATINCRASKSVSTSGYSFMHWYQQKPGQPPKLLIYLASNLESGVPDRFSGSGSGTDFTLTISSLQAEDVAVYYCQHSREVPWTFGQGTKVEIKRTVAAPSVFIFPPSDEQLKSGTASVVCLLNNFYPREAKVQWKVDNALQSGNSQESVTEQDSKDSTYSLSSTLTLSKADYEKHKVYACEVTHQGLSSPVTKSFNRGEC
Regarding B4, in experiment [3], the “CD86 expression on mouse dendritic cells (ratio of MFI with respect to the compound-free group)” value is “enhanced the expression of CD86 on mouse dendritic cells only when mouse bone marrow-derived dendritic cells were cultured with CT26.WT-hCD70”. In addition, in experiment [4], the “tumor growth (tumor volume)” value is “tumor growth was markedly inhibited”.
